Whole data set: some 33,000 sequences, median “E-score (-0.5 to 0.5)” near -0.017, cut for the highest 2% near 0.3. This is one part of the list.
molecular target: T1, Sut1 (UniProt P53032); experiment: PBM E-score (8-mer binding enrichment) (E-score (-0.5 to 0.5)); higher = stronger / more preferred TF binding; most listed sequences are background and not binding sites; settings: protein concentration: 200 nM; construct: GST-full length
T1 sequence: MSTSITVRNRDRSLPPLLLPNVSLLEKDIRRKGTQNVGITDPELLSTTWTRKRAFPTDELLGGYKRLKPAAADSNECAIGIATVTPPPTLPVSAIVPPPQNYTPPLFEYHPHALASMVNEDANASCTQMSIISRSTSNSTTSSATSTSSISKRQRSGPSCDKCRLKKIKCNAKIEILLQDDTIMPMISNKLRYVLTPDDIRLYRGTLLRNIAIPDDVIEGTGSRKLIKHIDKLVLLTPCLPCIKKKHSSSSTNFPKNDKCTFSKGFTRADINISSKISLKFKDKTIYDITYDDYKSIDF
Summary of the method: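 Detection of bound protein used fluorescent anti-GST, with scans normalised by masliner. The proteins were GST-tagged yeast transcription factors applied at about 100-200 nM to universal all-10-mer Agilent arrays made double-stranded by primer extension. Each ungapped eight-base word, pooled with its reverse complement, was scored with an E-score from the Universal PBM Analysis Suite.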

Sequence | PBM E-score
ATAAAAAA | 0.265
CGTGGCGA | -0.18
TCCGCACA | 0.124
CGGTTCAC | -0.196
CTAAATTC | 0.187
ATTCCACG | -0.126
TGACACCA | -0.125
GTGTCTGA | -0.0232
GCAACATA | -0.0182
AGTGGCGA | 0.0883
CGGAAGCC | 0.112
GTGTCCTA | -0.0384
GCGAAGAA | 0.0776
AGTAGTGC | -0.185
CGGCCTGC | -0.186
TCGGGTAA | 0.109
GGCGGCAA | -0.112
ATGGCCGA | -0.0627
GCCTAAAC | -0.106
GCGGAGAC | 0.183
AGCGCGTG | -0.108
GGGATGAC | -0.134
CCAGCTGG | -0.188
TCACCGCA | -0.0955
GAACATAA | 0.166

Sequence | PBM E-score
CGTCATAG | -0.0945
AACCGCGA | 0.176
AGGGCGAC | -0.145
ACTTCCGA | 0.245
CCACCTCC | -0.127
ACCGTCAA | 0.0585
GAATACGC | 0.0146
CGTTCAGC | -0.0909
AGGCCCAC | -0.387
AAGCCGAC | -0.0298
AACTTGGA | -0.0712
CGGCTGTA | -0.119
AAGATACC | 0.142
AACCGAAG | 0.139
AGACGTAA | -0.134
CTCCTGAA | -0.0399
GCCCTGCA | -0.197
CCTGCGAG | -0.16
GCTAGACA | -0.0247
GGATAGAA | 0.0802
CATTTTCG | 0.141
AGGTAACG | -0.0455
AAGGGCGT | -0.146
CACTCTCG | -0.0481
ACCGAGAT | 0.26

Sequence | PBM E-score
TGATTAAA | 0.242
ACAGGCTA | -0.245
ATTTTAAG | 0.212
CTAAACTA | 0.0672
CATCGCCC | -0.251
CGTGATAG | -0.0575
CATTACCC | 0.0462
CGGTTACA | 0.14
TCGAATAA | 0.061
CGCCCAAG | -0.248
CTCGGTCC | 0.0345
CCAGACAC | -0.186
CCCGTTTC | 0.00582
ATGAACAT | 0.2
CAAACTAG | 0.0325
AGGTGCCC | -0.201
CAGGATAG | 0.051
AGAAAGAG | 0.123
ATCTTGGC | -0.067
GAACAGTC | 0.0217
AAGTAATC | 0.207
ATTCTCGC | -0.362
CAAGGTCA | -0.257
AGTGAAAG | 0.128
CCATGCCA | -0.291

Sequence | PBM E-score
GATACGTA | -0.057
ATCTTTCC | 0.193
ATGTGTGA | 0.0337
AACATATC | 0.21
GCTCGGGA | -0.0428
CGGGAGAC | 0.132
ACAGGGCG | -0.0919
CACACTCC | 0.158
TCCAGGGA | -0.276
AAGGGCGA | -0.173
AGGAGCTG | -0.247
ATCCCGTG | -0.119
CCTGTCAA | -0.085
ACTCAGGC | -0.0895
GTTATGTA | 0.115
AGCACCCT | -0.184
GGCATGGA | -0.203
ATCCATTG | 0.0348
CTGAATGC | -0.182
AGCGCCAG | -0.0984
ATTAGCCC | 0.0147
ATGCCTGA | -0.143
GTCCTTCA | -0.0969
CTCCCAAG | -0.192
CGACAATA | 0.153

Sequence | PBM E-score
AGATTGCC | -0.043
CATCCGTC | 0.0853
GTGATACA | -0.064
TCGCATAA | 0.247
CACTCGGG | -0.0411
CCCCAGCG | -0.296
TACCCCAA | -0.0514
AAACCCTG | -0.095
CATACAAA | 0.264
AACGAGAC | -0.0364
AAAATTAG | 0.155
AGGTGCTG | -0.044
AATACAGT | 0.163
GACCTGCA | -0.0862
ACATACAA | 0.189
CGAACGTC | -0.168
AAAGGGTT | 0.0671
AAGTTTAA | 0.0927
CTCACGTA | -0.0939
ATCATTTA | 0.283
GGAAGCAA | 0.00081
GACACGGC | -0.0171
CATAAGGC | -0.065
ATTGCGCG | 0.00102
TCGCAGCA | -0.166

Sequence | PBM E-score
CCAGATTC | -0.218
CACGCCCG | -0.0449
ATGTGGAG | 0.103
GAATGCCC | -0.356
GAAACATC | -0.0285
AAAGATAT | 0.219
ACCTAATC | 0.192
AGTAGAGG | -0.308
GCCACGAC | 0.0627
AGTTACGC | -0.0245
TAACTGTA | 0.176
CTGACCAG | -0.211
AGCGAGAG | 0.0844
ATAGACGG | 0.117
AGGTGATG | -0.295
GAAAGGAA | 0.0308
TAGTATCA | 0.142
CTACATCA | 0.0225
GCACTGTA | 0.123
AATGACCT | -0.0653
ATTGGAAC | 0.22
CTCTGTTA | -0.147
CCATGGAA | -0.0431
GTGTGGAA | 0.09
AACAGCCA | 0.129

Sequence | PBM E-score
ACCTCGTG | -0.177
CTCTAATA | 0.0688
ACTTCGCC | -0.0213
ATGTCGTC | -0.0778
CCACGATA | 0.0317
CCTTTACA | 0.0265
GGGCCTAA | -0.0946
AAGGATAC | -0.0233
CGAGTTCA | -0.149
ACGACCGG | -0.0759
AAACTGAA | 0.171
ATTATGTG | 0.187
AAGGGTTC | 0.0271
ACTTATTG | 0.122
CTCGCCTA | -0.0978
CACTGTCA | -0.0844
CGCGAGAA | -0.207
CAGGAAAA | -0.0187
TACCTAGA | 0.0225
AAACAAAA | 0.197
CCCGCAAA | 0.1
ACAAAAAA | 0.264

Source: the supplement of paper PMC3334620
